The campaign covered roughly 310,000 compounds. About 14,000 (4.5%) showed an effect of 50% or more. The effect is printed as a negative number. This is one part of the list.
What follows are molecules tested against human ether-à-go-go-related gene (hERG) potassium channel (human, UniProt Q12809) (assay: primary screen, population patch clamp on CHO cells stably expressing hERG).
Chain of human ether-à-go-go-related gene (hERG) potassium channel (Q12809 whole entry, looked up): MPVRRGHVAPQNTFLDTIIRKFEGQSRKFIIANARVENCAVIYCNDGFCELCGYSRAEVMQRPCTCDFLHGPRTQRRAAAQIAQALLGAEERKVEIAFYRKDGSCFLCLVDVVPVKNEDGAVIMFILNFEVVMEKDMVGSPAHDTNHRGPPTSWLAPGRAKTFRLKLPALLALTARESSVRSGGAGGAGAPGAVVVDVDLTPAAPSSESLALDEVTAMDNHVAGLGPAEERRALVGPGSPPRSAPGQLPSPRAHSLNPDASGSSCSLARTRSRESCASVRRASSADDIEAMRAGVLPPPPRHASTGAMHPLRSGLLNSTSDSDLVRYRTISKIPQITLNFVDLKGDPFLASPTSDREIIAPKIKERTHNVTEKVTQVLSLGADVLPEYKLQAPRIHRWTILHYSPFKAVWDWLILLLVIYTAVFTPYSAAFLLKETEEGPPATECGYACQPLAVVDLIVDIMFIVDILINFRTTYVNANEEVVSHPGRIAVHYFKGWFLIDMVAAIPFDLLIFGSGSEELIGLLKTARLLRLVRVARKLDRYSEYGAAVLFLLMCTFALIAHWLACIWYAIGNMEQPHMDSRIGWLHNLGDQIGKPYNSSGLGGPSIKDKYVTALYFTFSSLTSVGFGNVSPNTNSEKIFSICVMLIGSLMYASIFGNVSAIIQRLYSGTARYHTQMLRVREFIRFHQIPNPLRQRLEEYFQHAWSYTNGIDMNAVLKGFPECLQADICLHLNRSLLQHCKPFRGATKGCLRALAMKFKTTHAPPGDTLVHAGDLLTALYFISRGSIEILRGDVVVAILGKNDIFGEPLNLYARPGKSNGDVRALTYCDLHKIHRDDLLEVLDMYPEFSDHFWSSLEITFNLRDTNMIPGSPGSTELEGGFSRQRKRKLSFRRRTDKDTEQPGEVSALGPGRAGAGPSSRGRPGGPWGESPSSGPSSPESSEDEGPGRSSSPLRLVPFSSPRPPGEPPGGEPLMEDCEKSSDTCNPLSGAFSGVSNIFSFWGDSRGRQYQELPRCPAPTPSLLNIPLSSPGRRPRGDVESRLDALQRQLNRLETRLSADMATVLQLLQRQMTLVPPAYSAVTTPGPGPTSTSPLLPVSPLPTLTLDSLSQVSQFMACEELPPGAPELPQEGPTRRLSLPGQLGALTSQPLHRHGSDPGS
With `COc1ccc(Cl)cc1S(=O)(=O)N1CCC(C(=O)NCCC2=CCCCC2)CC1` the “hERG current change (%, negative = inhibition) at 10uM” value was -40.1%. `CCCCCN(C(=O)CN1CCC(Cc2ccccc2)CC1)c1c(N)n(CCCC)c(=O)[nH]c1=O` was tested, and the “hERG current change (%, negative = inhibition) at 10uM” value was -48.1%. `CC1CN(S(=O)(=O)N2CCOCC2)CCN1S(=O)(=O)N1CCOCC1` (stereo not drawn) was tested, and the “hERG current change (%, negative = inhibition) at 10uM” value was 15.3%. With `Cc1cccc(C(=O)N2CCC(Cc3ccccc3)CC2)c1[N+](=O)[O-]` the “hERG current change (%, negative = inhibition) at 10uM” value was -21.6%. `Cc1cccc(C(=O)OCC(=O)Nc2ccc3c(c2)OCCO3)c1O` was tested, and the “hERG current change (%, negative = inhibition) at 10uM” value was 13.2%. In the case of `CCCN(CCC)S(=O)(=O)c1ccc(C(=O)N2CCOCC2)cc1`, the “hERG current change (%, negative = inhibition) at 10uM” value is reported as -5.49%. For `COc1ccc(C2CC(c3ccc(F)cc3)Nc3nc(N)nn32)cc1` (stereo not drawn), the “hERG current change (%, negative = inhibition) at 10uM” value was -27%. For `NS(=O)(=O)c1ccc(NC(=O)C2Cc3ccccc3C(=O)O2)cc1` (stereo not drawn), the “hERG current change (%, negative = inhibition) at 10uM” value was 0.278%. In the case of `Cc1cc(C)c(OCC(=O)OCC(=O)NC2CCCCCCC2)c(C)c1`, the “hERG current change (%, negative = inhibition) at 10uM” value is reported as -7.6%. In the case of `C#CCNC(=O)C1=C[C@H](c2csc3ccccc23)C[C@H](OCCCCO)O1`, the “hERG current change (%, negative = inhibition) at 10uM” value is reported as -13.6%. With `Cn1c(C(=O)O)cc2cc(F)ccc21` the “hERG current change (%, negative = inhibition) at 10uM” value was -10.8%. With `COc1ccc(NC(=O)CN(C)C(=O)c2cn(-c3ccccc3)nc2-c2ccc(OC)cc2)cc1` the “hERG current change (%, negative = inhibition) at 10uM” value was -7.66%. In the case of `Cc1cc(F)ccc1NC(=O)C1CCCO1` (stereo not drawn), the “hERG current change (%, negative = inhibition) at 10uM” value is reported as 15.2%. `CSCCC(NC(=O)COc1ccccc1)C(=O)NC1CCC(C)CC1` (stereo not drawn) was tested, and the “hERG current change (%, negative = inhibition) at 10uM” value was -18.9%. For `CCOC(=O)C1CCN(C(=O)c2sccc2Cl)CC1`, the “hERG current change (%, negative = inhibition) at 10uM” value was 1.66%. `COc1ccc(CC(=O)NNS(=O)(=O)c2ccc(F)cc2)cc1` was tested, and the “hERG current change (%, negative = inhibition) at 10uM” value was 15.1%. For `O=C(COC(=O)CNC(=O)c1ccc(Cl)c([N+](=O)[O-])c1)NNC(=O)c1ccccc1F`, the “hERG current change (%, negative = inhibition) at 10uM” value was -14.6%. For `Cc1cc(C)c(C#N)c(Nc2cccc(Br)c2)n1`, the “hERG current change (%, negative = inhibition) at 10uM” value was 12.5%. For `Cc1nnc(NC(=O)CCn2cnc3ccccc3c2=O)s1`, the “hERG current change (%, negative = inhibition) at 10uM” value was 24.2%. With `O=C1C=C(Nc2ccccc2C(=O)O)c2ccccc2C1=O` the “hERG current change (%, negative = inhibition) at 10uM” value was 11.9%. In the case of `CCOc1ccc(S(=O)(=O)NCCC(=O)N(C)CC(=O)Nc2ccc(N3CCOCC3)cc2)cc1`, the “hERG current change (%, negative = inhibition) at 10uM” value is reported as -5.05%. `Cn1c(=O)oc2cc(S(=O)(=O)N3CCCC(C(=O)NCCN4CCOCC4)C3)ccc21` (stereo not drawn) was tested, and the “hERG current change (%, negative = inhibition) at 10uM” value was 11.3%. With `Cc1ccccc1-c1nc(CS(=O)CC(=O)N2CCC3(CC2)OCCO3)c(C)o1` (stereo not drawn) the “hERG current change (%, negative = inhibition) at 10uM” value was -0.566%. With `C1CSC2(N1)C1CC3CC2CC(C1)C31NCCS1.Cl` (stereo not drawn) the “hERG current change (%, negative = inhibition) at 10uM” value was 6.93%. `NC(=O)c1ccc(NC(=O)CCC(=O)c2cccs2)cc1` was tested, and the “hERG current change (%, negative = inhibition) at 10uM” value was 14.7%. For `CC1CCCN(CCCNS(=O)(=O)c2ccc3c(c2)CCN3C(=O)C2CC2)C1` (stereo not drawn), the “hERG current change (%, negative = inhibition) at 10uM” value was -3.1%. `CC(=O)Nc1ccc(OCC(O)Cn2cnc3ccccc32)cc1` (stereo not drawn) was tested, and the “hERG current change (%, negative = inhibition) at 10uM” value was 16%. In the case of `Cc1nn(C)cc1S(=O)(=O)N1CCN(c2ccc(F)cc2)CC1`, the “hERG current change (%, negative = inhibition) at 10uM” value is reported as -14%. In the case of `COc1ccc(NC(=O)COC(=O)CCCC2=NS(=O)(=O)c3ccccc3N2)cc1Cl`, the “hERG current change (%, negative = inhibition) at 10uM” value is reported as 38.8%. In the case of `O=C(CC(C(=O)O)c1ccccc1)Nc1ccccc1` (stereo not drawn), the “hERG current change (%, negative = inhibition) at 10uM” value is reported as 15%. For `Cc1ccc(NC2(c3nnnn3-c3c(C)cccc3C)CCCCC2)cc1`, the “hERG current change (%, negative = inhibition) at 10uM” value was 7.77%. In the case of `CC1(C)Oc2ccc3ccc(=O)oc3c2C(/C=N/O)C1=O` (stereo not drawn), the “hERG current change (%, negative = inhibition) at 10uM” value is reported as 3.87%. With `COCCCn1c(SCC(=O)N2CCCCC2C)nnc1-c1ccco1` (stereo not drawn) the “hERG current change (%, negative = inhibition) at 10uM” value was -14.9%. `Nc1[nH]n(-c2ccccc2)c(=O)c1N=Nc1ccc2c(c1)OCO2` was tested, and the “hERG current change (%, negative = inhibition) at 10uM” value was 6.37%. `O=c1c2ccccc2cnn1Cc1n[nH]c(=S)n1-c1ccc(Cl)cc1` was tested, and the “hERG current change (%, negative = inhibition) at 10uM” value was 14.5%. In the case of `CCOc1ccccc1NC(=O)c1nc(-c2ccccc2)oc1C`, the “hERG current change (%, negative = inhibition) at 10uM” value is reported as 8.38%. For `COCCn1c(SCC(=O)Nc2cccc(F)c2)nc2c(c1=O)SCC2`, the “hERG current change (%, negative = inhibition) at 10uM” value was -10.8%. For `O=C1C2CC(O)CN2C(=O)N1c1ccccc1` (stereo not drawn), the “hERG current change (%, negative = inhibition) at 10uM” value was 17%. In the case of `O=c1[nH]c(=O)n(Cc2ccccc2)c(O)c1/C=C1\C=Nc2ccccc21`, the “hERG current change (%, negative = inhibition) at 10uM” value is reported as 4.57%. For `CCOC(=O)c1c(-c2cccc(C)c2)csc1NC(=O)c1c(-c2ccccc2)noc1C`, the “hERG current change (%, negative = inhibition) at 10uM” value was 3.63%. With `Cc1cccc(C(=O)Oc2ccccc2/C=N/NC(=O)c2ccc(NC(=O)C(C)(C)C)cc2)c1` the “hERG current change (%, negative = inhibition) at 10uM” value was -4.88%. For `NNC(=O)[C@H](Cc1ccccc1)NC(=O)NCCc1ccccc1`, the “hERG current change (%, negative = inhibition) at 10uM” value was -2.34%. `CCOC(=O)CSc1nc2cc(C(=O)NCC3CCCO3)ccc2c(=O)n1Cc1ccco1` (stereo not drawn) was tested, and the “hERG current change (%, negative = inhibition) at 10uM” value was -39.3%. In the case of `CCCCCn1c(Sc2ccccc2)nc2c1c(=O)[nH]c(=O)n2C`, the “hERG current change (%, negative = inhibition) at 10uM” value is reported as -4.78%. `COc1ccccc1C(C)NCC(=O)Nc1c(F)cccc1F` (stereo not drawn) was tested, and the “hERG current change (%, negative = inhibition) at 10uM” value was 6.88%. In the case of `COCCn1nnnc1C(c1ccc2ncccc2c1)N1CCc2ccccc21` (stereo not drawn), the “hERG current change (%, negative = inhibition) at 10uM” value is reported as -16.9%. In the case of `O=C(O)CSCCC(=O)Nc1ccc(F)cc1`, the “hERG current change (%, negative = inhibition) at 10uM” value is reported as -7.84%. `O=C(Nc1nnc(-c2cccnc2)o1)c1cccc(Cl)c1` was tested, and the “hERG current change (%, negative = inhibition) at 10uM” value was -2.87%. In the case of `Cc1ccccc1-n1c(SCC(=O)N2CCCC2)nnc1-c1ccccn1`, the “hERG current change (%, negative = inhibition) at 10uM” value is reported as 16.1%. In the case of `CSc1nc2oc3c(c2c2nncn12)CC(C)(C)SC3`, the “hERG current change (%, negative = inhibition) at 10uM” value is reported as -0.476%. For `COc1cccc(S(=O)(=O)NCC(=O)N2CCCCCC2)c1`, the “hERG current change (%, negative = inhibition) at 10uM” value was 27.6%. In the case of `Cc1ccc(NC(=O)Cc2ccc(Cl)cc2)cc1S(=O)(=O)N1CCCCCC1`, the “hERG current change (%, negative = inhibition) at 10uM” value is reported as 2.51%. `Cc1cc(C)nc(SCc2nnc(SCC(=O)Nc3ccccc3C)n2Cc2ccco2)n1` was tested, and the “hERG current change (%, negative = inhibition) at 10uM” value was -14%. In the case of `CSc1nc(N(C)NC(=O)c2cccc(C)c2)c2ccccc2n1`, the “hERG current change (%, negative = inhibition) at 10uM” value is reported as -25.7%. For `O=C(O)CCNC(=O)C12CC3CC(CC(C3)C1)C2`, the “hERG current change (%, negative = inhibition) at 10uM” value was 28.1%. With `O=C1C2C3C=CC(C3)C2C(=O)N1/N=C/c1ccc(-c2ccccc2[N+](=O)[O-])o1` (stereo not drawn) the “hERG current change (%, negative = inhibition) at 10uM” value was -30.1%. `CC(=O)N/N=C(\C)C1COc2ccccc2O1` (stereo not drawn) was tested, and the “hERG current change (%, negative = inhibition) at 10uM” value was 10.9%.
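Also: peak tail current of the secondary pulse compared with the same well before compound.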
